Reference: the supplement of paper PMC4967469
pIC50: −log10 of the molar value. A lower IC50 marks a more sensitive line; a fit beyond the top or the lowest dose is shown as a bound at that dose. AUC, from the same fit, is the share of area under the viability curve across the 256-fold dose range; the more sensitive the line, the further below 1. For part of these data: A top dose marked as inferred comes from the curve model; the source does not state it. For part of these data: Drugs with an entry number were screened twice under separate entries, and the two screens often disagree.

How the values were obtained:
BMS-708163 = compound: NC(=O)[C@@H](CCC(F)(F)F)N(Cc1ccc(-c2ncon2)cc1F)S(=O)(=O)c1ccc(Cl)cc1 [BMS-708163]; test: Viability of human cancer cell lines after 72 h of drug (GDSC screen); conditions: top dose 5 µM; screen: GDSC drug entry 1072; top dose inferred
Description: (§1)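 Human cancer cell lines in 384-well plates, medium with 10% serum, drug for 72 h over a 256-fold dose range (nine 2-fold or five 4-fold steps up to the top dose). Adherent lines were fixed and stained with the nucleic acid dye Syto60, suspension lines read with resazurin; signal relative to control wells, capped at 0 and 100%. One two-parameter sigmoid per drug and line, fitted in a mixed model over all curves with the slope shared within a line.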

PAC-1 = compound: C=CCc1cccc(/C=N/NC(=O)CN2CCN(Cc3ccccc3)CC2)c1O [PAC-1]; test: as above; conditions: top dose 2.56 µM
Description: as §1

| Cell Line | AUC (BMS-708163) | pIC50 (BMS-708163) | AUC (PAC-1) | pIC50 (PAC-1) |
| --- | --- | --- | --- | --- |
| MKN28 (stomach, adherent) | 0.965 | < 5.30 | 0.858 | 5.66 |
| MKN45 (stomach, adherent) | 0.915 | < 5.30 | 0.751 | 5.98 |
| ML-1 (thyroid, adherent) | 0.982 | < 5.30 | 0.907 | < 5.59 |
| MOG-G-CCM (glioma, adherent) | 0.972 | < 5.30 | 0.97 | < 5.59 |
| MOG-G-UVW (glioma, adherent) | 0.971 | < 5.30 | 0.967 | < 5.59 |
| MS751 (cervix, adherent) | 0.986 | < 5.30 | 0.989 | < 5.59 |
| NCI-H28 (mesothelioma, adherent) | 0.896 | < 5.30 | 0.968 | < 5.59 |
| NCI-H196 (small cell lung carcinoma, adherent) | 0.988 | < 5.30 | 0.943 | < 5.59 |
| NCI-H292 (lung adenocarcinoma, adherent) | 0.87 | < 5.30 | 0.907 | < 5.59 |
| NCI-H358 (lung adenocarcinoma, adherent) | 0.96 | < 5.30 | 0.811 | 5.81 |
| NCI-H441 (lung adenocarcinoma, adherent) | 0.979 | < 5.30 | 0.883 | < 5.59 |
| NCI-H460 (large cell lung carcinoma, adherent) | 0.968 | < 5.30 | 0.896 | < 5.59 |
| NCI-H520 (lung squamous cell carcinoma, adherent) | 0.962 | < 5.30 | 0.943 | < 5.59 |
| NCI-H522 (lung adenocarcinoma, adherent) | 0.972 | < 5.30 | 0.905 | < 5.59 |
| NCI-H596 (lung adenocarcinoma, adherent) | 0.923 | < 5.30 | 0.884 | < 5.59 |
| NCI-H647 (non-small cell lung carcinoma, adherent) | 0.982 | < 5.30 | 0.948 | < 5.59 |
| NCI-H650 (lung adenocarcinoma, adherent) | 0.964 | < 5.30 | 0.863 | < 5.59 |
| NCI-H661 (large cell lung carcinoma, adherent) | 0.933 | < 5.30 | 0.929 | < 5.59 |
| NCI-H727 (lung carcinoid, adherent) | 0.964 | < 5.30 | 0.772 | 5.76 |
| NCI-H838 (lung adenocarcinoma, adherent) | 0.921 | < 5.30 | 0.968 | < 5.59 |
| NCI-H841 (small cell lung carcinoma, adherent) | 0.986 | < 5.30 | 0.984 | < 5.59 |
| NCI-H1048 (small cell lung carcinoma, adherent) | 0.96 | < 5.30 | 0.988 | < 5.59 |
| NCI-H1435 (lung adenocarcinoma, semi-adherent) | 0.991 | < 5.30 | 0.993 | < 5.59 |

| Cell Line | AUC (BMS-708163) | pIC50 (BMS-708163) | AUC (PAC-1) | pIC50 (PAC-1) |
| --- | --- | --- | --- | --- |
| NCI-H1437 (lung adenocarcinoma, adherent) | 0.985 | < 5.30 | 0.865 | 5.62 |
| NCI-H1563 (lung adenocarcinoma, adherent) | 0.985 | < 5.30 | 0.956 | < 5.59 |
| NCI-H1568 (lung adenocarcinoma, adherent) | 0.979 | < 5.30 | 0.688 | 6.21 |
| NCI-H1573 (lung adenocarcinoma, adherent) | 0.978 | < 5.30 | 0.986 | < 5.59 |
| NCI-H1623 (lung adenocarcinoma, adherent) | 0.911 | < 5.30 | 0.981 | < 5.59 |
| NCI-H1651 (lung adenocarcinoma, adherent) | 0.901 | < 5.30 | 0.914 | < 5.59 |
| NCI-H1688 (small cell lung carcinoma, adherent) | 0.978 | < 5.30 | 0.96 | < 5.59 |
| NCI-H1693 (lung adenocarcinoma, adherent) | 0.976 | < 5.30 | 0.961 | < 5.59 |
| NCI-H1703 (lung adenocarcinoma, adherent) | 0.969 | < 5.30 | 0.973 | < 5.59 |
| NCI-H1734 (lung adenocarcinoma, adherent) | 0.985 | < 5.30 | 0.953 | < 5.59 |
| NCI-H1755 (lung adenocarcinoma, adherent) | 0.926 | < 5.30 | 0.982 | < 5.59 |
| NCI-H1781 (lung adenocarcinoma, adherent) | 0.989 | < 5.30 | 0.96 | < 5.59 |
| NCI-H1792 (lung adenocarcinoma, adherent) | 0.903 | < 5.30 | 0.972 | < 5.59 |
| NCI-H1793 (lung adenocarcinoma, adherent) | 0.982 | < 5.30 | 0.971 | < 5.59 |
| NCI-H1915 (large cell lung carcinoma, adherent) | 0.988 | < 5.30 | 0.978 | < 5.59 |
| NCI-H1944 (lung adenocarcinoma, adherent) | 0.944 | < 5.30 | 0.948 | < 5.59 |
| NCI-H1993 (lung adenocarcinoma, adherent) | 0.948 | < 5.30 | 0.98 | < 5.59 |
| NCI-H2009 (lung adenocarcinoma, adherent) | 0.966 | < 5.30 | 0.874 | < 5.59 |
| NCI-H2023 (lung adenocarcinoma, adherent) | 0.98 | < 5.30 | 0.931 | < 5.59 |
| NCI-H2029 (small cell lung carcinoma, adherent) | 0.989 | < 5.30 | 0.992 | < 5.59 |
| NCI-H2030 (lung adenocarcinoma, adherent) | 0.938 | < 5.30 | 0.897 | < 5.59 |
| NCI-H2052 (mesothelioma, adherent) | 0.902 | < 5.30 | 0.902 | < 5.59 |
| NCI-H2085 (lung adenocarcinoma, adherent) | 0.987 | < 5.30 | 0.935 | < 5.59 |

| Cell Line | AUC (BMS-708163) | pIC50 (BMS-708163) | AUC (PAC-1) | pIC50 (PAC-1) |
| --- | --- | --- | --- | --- |
| NCI-H2087 (lung adenocarcinoma, semi-adherent) | 0.986 | < 5.30 | 0.911 | < 5.59 |
| NCI-H2110 (non-small cell lung carcinoma, adherent) | 0.986 | < 5.30 | 0.952 | < 5.59 |
| NCI-H2122 (lung adenocarcinoma, adherent) | 0.944 | < 5.30 | 0.914 | < 5.59 |
| NCI-H2170 (lung squamous cell carcinoma, adherent) | 0.985 | < 5.30 | 0.849 | 5.69 |
| NCI-H2172 (non-small cell lung carcinoma, adherent) | 0.982 | < 5.30 | 0.854 | < 5.59 |
| NCI-H2291 (lung adenocarcinoma, adherent) | 0.944 | < 5.30 | 0.977 | < 5.59 |
| NCI-H2347 (lung adenocarcinoma, adherent) | 0.959 | < 5.30 | 0.822 | 5.71 |
| NCI-H2405 (lung adenocarcinoma, adherent) | 0.916 | < 5.30 | 0.948 | < 5.59 |
| NCI-H2444 (non-small cell lung carcinoma, adherent) | 0.988 | < 5.30 | 0.976 | < 5.59 |
| NCI-H2452 (mesothelioma, adherent) | 0.941 | < 5.30 | 0.979 | < 5.59 |
| NCI-H3122 (lung adenocarcinoma, adherent) | 0.938 | < 5.30 | 0.901 | < 5.59 |
| NUGC-3 (stomach, adherent) | 0.909 | < 5.30 | 0.909 | < 5.59 |
| NUGC-4 (stomach, adherent) | 0.981 | < 5.30 | 0.957 | < 5.59 |
| NY (osteosarcoma, adherent) | 0.958 | < 5.30 | 0.966 | < 5.59 |
| OAW-28 (ovary, adherent) | 0.948 | < 5.30 | 0.976 | < 5.59 |
| OAW-42 (ovary, adherent) | 0.97 | < 5.30 | 0.97 | < 5.59 |
| OE19 (oesophagus, adherent) | 0.954 | < 5.30 | 0.964 | < 5.59 |
| OE21 (oesophagus, adherent) | 0.931 | < 5.30 | 0.819 | 5.65 |
| OE33 (oesophagus, adherent) | 0.979 | < 5.30 | 0.901 | < 5.59 |
| OSC-19 (head and neck, adherent) | 0.984 | < 5.30 | 0.986 | < 5.59 |
| OSC-20 (head and neck, adherent) | 0.981 | < 5.30 | 0.958 | < 5.59 |
| OVCAR-3 (ovary, adherent) | 0.985 | < 5.30 | 0.809 | 5.82 |
| OVCAR-5 (ovary, adherent) | 0.982 | < 5.30 | 0.952 | < 5.59 |

| Cell Line | AUC (BMS-708163) | pIC50 (BMS-708163) | AUC (PAC-1) | pIC50 (PAC-1) |
| --- | --- | --- | --- | --- |
| OVCAR-8 (ovary, adherent) | 0.969 | < 5.30 | 0.852 | 5.78 |
| OVISE (ovary, adherent) | 0.933 | < 5.30 | 0.957 | < 5.59 |
| OVKATE (ovary, adherent) | 0.979 | < 5.30 | 0.968 | < 5.59 |
| OVMIU (ovary, adherent) | 0.889 | < 5.30 | 0.855 | < 5.59 |
| OVTOKO (ovary, adherent) | 0.946 | < 5.30 | 0.77 | 5.90 |
| P12-ICHIKAWA (T-cell lymphoblastic leukaemia, suspension) | 0.994 | < 5.30 | 0.853 | 5.87 |
| PA-1 (ovary, adherent) | 0.993 | < 5.30 | 0.988 | < 5.59 |
| PA-TU-8902 (pancreas, adherent) | 0.982 | < 5.30 | 0.979 | < 5.59 |
| PA-TU-8988T (pancreas, adherent) | 0.981 | < 5.30 | 0.976 | < 5.59 |
| PANC-02-03 (pancreas, adherent) | 0.975 | < 5.30 | 0.957 | < 5.59 |
| PANC-03-27 (pancreas, adherent) | 0.983 | < 5.30 | 0.766 | 6.05 |
| PANC-04-03 (pancreas, adherent) | 0.978 | < 5.30 | 0.927 | < 5.59 |
| PANC-08-13 (pancreas, adherent) | 0.86 | < 5.30 | 0.978 | < 5.59 |
| PANC-10-05 (pancreas, adherent) | 0.962 | < 5.30 | 0.924 | < 5.59 |
| PC-3 (prostate, adherent) | 0.937 | < 5.30 | 0.982 | < 5.59 |
| PC-3 [JPC-3] (lung adenocarcinoma, adherent) | 0.975 | < 5.30 | 0.981 | < 5.59 |
| PC-14 (lung adenocarcinoma, adherent) | 0.951 | < 5.30 | 0.961 | < 5.59 |
| PCI-4B (head and neck, adherent) | 0.984 | < 5.30 | 0.831 | 5.82 |
| PCI-6A (head and neck, adherent) | 0.943 | < 5.30 | 0.938 | < 5.59 |
| PCI-15A (head and neck, adherent) | 0.986 | < 5.30 | 0.945 | < 5.59 |
| PCI-30 (head and neck, adherent) | 0.887 | < 5.30 | 0.982 | < 5.59 |
